Source: patent US20210253643A1, “HYDROPHOBIC BIOMOLECULE STABILIZING SCAFFOLD PEPTIDES AND METHODS OF MAKING AND USING SAME” (The University of British Columbia, priority 2018, published 2021)
At least one peptide structure holds a part that was inferred or is arguable (an end, a ring closure or a residue). No end group written: not given here.

System: membrane proteins MsbA and FhuA
Experiment: On-gel reconstitution efficiency of membrane proteins
Assay type: biochemical, E. coli
Design: key: 1 means poor reconstitution; 5 means efficient reconstitution
Protocol: Bands were visualized by Coomassie Blue G250 staining.
Table 10 summarizes the biophysical, structural and experimental characteristics of the tested NSP peptide variants. […] The number of inter-helix salt bridges formed between the AH1 and AH2 regions for each of the tested amphipathic peptide variants was also determined.

[1] = Experiment #1, score 1 to 5, on-gel, MsbA and FhuA

Compound	Reconstitution Efficiency (/5) [1]	Reconstitution Efficiency (/5) (Experiment #2, score 1 to 5)
CC(C)C[C@H](NC(=O)[C@H](CCCCN)NC(=O)[C@H](C)NC(=O)[C@H](Cc1ccccc1)NC(=O)[C@H](Cc1ccc(O)cc1)NC(=O)[C@H](CC(=O)O)NC(=O)[C@H](CCCCN)NC(=O)[C@@H](NC(=O)[C@H](C)NC(=O)[C@H](CCC(=O)O)NC(=O)[C@H](CCCCN)NC(=O)[C@H](CC(C)C)NC(=O)[C@H](CCCCN)NC(=O)[C@H](CCC(=O)O)NC(=O)[C@H](C)NC(=O)[C@H](C)NC(=O)[C@@H]1CCCN1C(=O)[C@H](CC(=O)O)NC(=O)[C@H](Cc1c[nH]c2ccccc12)NC(=O)[C@H](Cc1ccccc1)NC(=O)[C@H](CCCCN)NC(=O)[C@H](C)NC(=O)[C@H](Cc1ccccc1)NC(=O)[C@H](Cc1ccc(O)cc1)NC(=O)[C@H](CC(=O)O)NC(=O)[C@H](CCCCN)NC(=O)[C@@H](NC(=O)[C@H](C)NC(=O)[C@H](CCC(=O)O)NC(=O)[C@H](CCCCN)NC(=O)[C@H](Cc1ccccc1)NC(=O)[C@H](CCCCN)NC(=O)[C@H](CCC(=O)O)NC(=O)[C@H](C)NC(=O)[C@@H](N)Cc1ccccc1)C(C)C)C(C)C)C(=O)N[C@@H](Cc1c[nH]c2ccccc12)C(=O)N[C@@H](CC(=O)O)C(=O)O [NSPr, FAEKFKEAVKDYFAKFWD P AAEKLKEAVKDYFAKLWD]	5	5
CC(C)C[C@H](NC(=O)[C@H](CCCCN)NC(=O)[C@H](C)NC(=O)[C@H](Cc1ccccc1)NC(=O)[C@H](Cc1ccc(O)cc1)NC(=O)[C@H](CC(=O)O)NC(=O)[C@H](CCCCN)NC(=O)[C@@H](NC(=O)[C@H](C)NC(=O)[C@H](CCC(=O)O)NC(=O)[C@H](CCCCN)NC(=O)[C@H](CC(C)C)NC(=O)[C@H](CCCCN)NC(=O)[C@H](CCC(=O)O)NC(=O)[C@H](C)NC(=O)[C@H](C)NC(=O)[C@@H]1CCCN1C(=O)[C@H](CC(=O)O)NC(=O)[C@H](Cc1c[nH]c2ccccc12)NC(=O)[C@H](Cc1ccccc1)NC(=O)[C@H](CCCCN)NC(=O)[C@H](C)NC(=O)[C@H](Cc1ccccc1)NC(=O)[C@H](Cc1ccc(O)cc1)NC(=O)[C@H](CC(=O)O)NC(=O)[C@H](CCCCN)NC(=O)[C@@H](NC(=O)[C@H](C)NC(=O)[C@H](CCC(=O)O)NC(=O)[C@H](CCCCN)NC(=O)[C@H](Cc1ccccc1)NC(=O)[C@H](CCCCN)NC(=O)[C@H](CCC(=O)O)NC(=O)[C@H](C)NC(=O)[C@H](Cc1ccccc1)NC(=O)[C@H](Cc1c[nH]cn1)NC(=O)[C@H](Cc1c[nH]cn1)NC(=O)[C@H](Cc1c[nH]cn1)NC(=O)[C@H](Cc1c[nH]cn1)NC(=O)[C@H](Cc1c[nH]cn1)NC(=O)[C@@H](N)Cc1c[nH]cn1)C(C)C)C(C)C)C(=O)N[C@@H](Cc1c[nH]c2ccccc12)C(=O)N[C@@H](CC(=O)O)C(=O)O [NSPr-6xHis, HHHHHH FAEKFKEAVKDYFAKFWD P AAEKLKEAVKDYFAKLWD]	4 /5	4 /5
CC(C)C[C@H](NC(=O)[C@H](CCCCN)NC(=O)[C@H](C)NC(=O)[C@H](Cc1ccccc1)NC(=O)[C@H](Cc1ccc(O)cc1)NC(=O)[C@H](CC(=O)O)NC(=O)[C@H](CCCCN)NC(=O)[C@@H](NC(=O)[C@H](C)NC(=O)[C@H](CCC(=O)O)NC(=O)[C@H](CCCCN)NC(=O)[C@H](CC(C)C)NC(=O)[C@H](CCCCN)NC(=O)[C@H](CCC(=O)O)NC(=O)[C@H](C)NC(=O)[C@H](C)NC(=O)[C@@H]1CCCN1C(=O)[C@H](CC(=O)O)NC(=O)[C@H](Cc1c[nH]c2ccccc12)NC(=O)[C@H](Cc1ccccc1)NC(=O)[C@H](CCCCN)NC(=O)[C@H](C)NC(=O)[C@H](Cc1ccccc1)NC(=O)[C@H](Cc1ccc(O)cc1)NC(=O)[C@H](CC(=O)O)NC(=O)[C@H](CCCCN)NC(=O)[C@@H](NC(=O)[C@H](C)NC(=O)[C@H](CCC(=O)O)NC(=O)[C@H](CCCCN)NC(=O)[C@H](Cc1ccccc1)NC(=O)[C@H](CCCCN)NC(=O)[C@H](CCC(=O)O)NC(=O)[C@H](C)NC(=O)[C@H](Cc1ccccc1)NC(=O)[C@@H](N)CS)C(C)C)C(C)C)C(=O)N[C@@H](Cc1c[nH]c2ccccc12)C(=O)N[C@@H](CC(=O)O)C(=O)O [NSPr-C, C FAEKFKEAVKDYFAKFWD P AAEKLKEAVKDYFAKLWD]	5	5
CC(C)C[C@H](NC(=O)[C@H](CCCCN)NC(=O)[C@H](C)NC(=O)[C@H](Cc1ccccc1)NC(=O)[C@H](Cc1ccc(O)cc1)NC(=O)[C@H](CC(=O)O)NC(=O)[C@H](CCCCN)NC(=O)[C@@H](NC(=O)[C@H](C)NC(=O)[C@H](CCC(=O)O)NC(=O)[C@H](CCCCN)NC(=O)[C@H](CC(C)C)NC(=O)[C@H](CCCCN)NC(=O)[C@H](CCC(=O)O)NC(=O)[C@H](C)NC(=O)[C@H](C)NC(=O)[C@@H]1CCCN1C(=O)[C@H](CC(=O)O)NC(=O)[C@H](Cc1c[nH]c2ccccc12)NC(=O)[C@H](Cc1ccccc1)NC(=O)[C@H](CCCCN)NC(=O)[C@H](C)NC(=O)[C@H](Cc1ccccc1)NC(=O)[C@H](Cc1ccc(O)cc1)NC(=O)[C@H](CC(=O)O)NC(=O)[C@H](CCCCN)NC(=O)[C@@H](NC(=O)[C@H](C)NC(=O)[C@H](CCC(=O)O)NC(=O)[C@H](CCCCN)NC(=O)[C@H](Cc1ccccc1)NC(=O)[C@H](CCCCN)NC(=O)[C@H](CCC(=O)O)NC(=O)[C@H](C)NC(=O)[C@H](Cc1ccccc1)NC(=O)CCCC[C@@H]1SC[C@@H]2NC(=O)N[C@@H]21)C(C)C)C(C)C)C(=O)N[C@@H](Cc1c[nH]c2ccccc12)C(=O)N[C@@H](CC(=O)O)C(=O)O [NSPr-biotin, Bio-FAEKFKEAVKDYFAKFWD P AAEKLKEAVKDYFAKLWD]	5	5
DWLKAFYDKVAEKLKEAAPDWFKAFYDKVAEKFKEAF [NSP, DWLKAFYDKVAEKLKEAA P DWFKAFYDKVAEKFKEAF]	3 /5	3 /5
FAAKFKEAVKDYFAKFWDPAAEKLAEAVADYFAALWD [3 SB Disruption H2, FAAKFKEAVKDYFAKFWD P AAEKLAEAVADYFAALWD]	–	2 /5
FADKFKDAVKEYFAKFWEPAADKLKDAVKEYFAKLWE [Neg Switch, FADKFKDAVKEYFAKFWE P AADKLKDAVKEYFAKLWE]	–	4 /5
FAEAFKEAVKDYFAAFWDPAAEKLKEAVADYFAKLWD [3 SB Disruption H1, FAEAFKEAVKDYFAAFWD P AAEKLKEAVADYFAKLWD]	–	2 /5
FAEAFKEAVKDYFAAFWDPAAEKLKEAVKDYFAKLWD [2 SB Disruption, FAEAFKEAVKDYFAAFWD P AAEKLKEAVKDYFAKLWD]	–	5
FAEAFKEAVKDYFAKFWDPAAEKLKEAVKDYFAKLWD [1 SB Disruption, FAEAFKEAVKDYFAKFWD P AAEKLKEAVKDYFAKLWD]	–	4 /5
FAEKFKEAVKDQFAKFWDPAAEKLKEAVKDQFAKLWD [Tyr/Gln Switch, FAEKFKEAVKDQFAKFWD P AAEKLKEAVKDQFAKLWD]	–	4 /5
FAEKFKEAVKDYFAKFWDGAAEKLKEAVKDYFAKLWD [NSPr-G, FAEKFKEAVKDYFAKFWD G AAEKLKEAVKDYFAKLWD]	2 /5	–
FAEKFKEAVKDYFAKFWDGAAEKLKEAVKDYFAKLWD [Pro/Gly Switch, FAEKFKEAVKDYFAKFWD G AAEKLKEAVKDYFAKLWD]	–	5
FAEKFKEAVKDYFAKFWDPAAEKFKEAVKDYFAKLFD [Peptide 4F-3F, FAEKFKEAVKDYFAKFWD P AAEKFKEAVKDYFAKLFD]	–	4 /5
FAEKFKEAVKDYFAKFWDPAAEKLKEAVKDYFAKFWD [Peptide 4F-2F, FAEKFKEAVKDYFAKFWD P AAEKLKEAVKDYFAKFWD]	–	5
FAEKFKEAVKDYFAKFWDPAAEKLKEAVKDYFAKLW [NSPr-36, FAEKFKEAVKDYFAKFWD P AAEKLKEAVKDYFAKLW]	4 /5	5
FAEKFKEAVKDYFAKFWDPFAEKFKEAVKDYFAKFWD [Peptide 4F-4F, FAEKFKEAVKDYFAKFWD P FAEKFKEAVKDYFAKFWD]	3 /5	4 /5
FAEKFKEAVKDYFAKLWDPAAEKLKEAVKDYFAKLWD [Peptide 3F-1F, FAEKFKEAVKDYFAKLWD P AAEKLKEAVKDYFAKLWD]	–	5
FAEKFKEAVKPYFAKFWDPAAEKLKEAVKPYFAKLWD [NSPr-3P, FAEKFKEAVKPYFAKFWD P AAEKLKEAVKPYFAKLWD]	1	1
FAEKLKEAVKDYFAKLWDPFAEKLKEAVKDYFAKLWD [Peptide 2F-2F, FAEKLKEAVKDYFAKLWD P FAEKLKEAVKDYFAKLWD]	4 /5	4 /5
FAEKLKEAVKDYLAKFWDPAAEKLKEAVKDYFAKLWD [Peptide 2F-1F, FAEKLKEAVKDYLAKFWD P AAEKLKEAVKDYFAKLWD]	–	3 /5
FAERFREAVRDYFARFWDPAAERLREAVRDYFARLWD [Pos Switch, FAERFREAVRDYFARFWD P AAERLREAVRDYFARLWD]	–	4 /5
FVEKFKEVAKDYFVKFWDPVVEKLKEVAKDYFVKLWD [Ala/Val Switch, FVEKFKEVAKDYFVKFWD P VVEKLKEVAKDYFVKLWD]	–	4 /5
WAEKFKEAVKDYWAKFWDPAAEKLKEAVKDYWAKLWD [Phe/Trp Switch, WAEKFKEAVKDYWAKFWD P AAEKLKEAVKDYWAKLWD]	–	3 /5
YAEKFKEAVKDYFAKFYDPAAEKLKEAVKDYFAKLWD [Phe/Tyr Switch, YAEKFKEAVKDYFAKFYD P AAEKLKEAVKDYFAKLWD]	–	3 /5
